Source: ChEMBL document CHEMBL5308541, “MAIP: An Open-Source Tool to Enrich High-Throughput Screening Output and Identify Novel, Druglike Molecules with Antimalarial Activity” (ACS Med Chem Lett, 2023)
Among all 150,000 compounds or so, about 540 (0.36%) showed an effect of 50% or more. The list shows a part of the results.

Test system: Plasmodium falciparum
Assay: Primary screen in NF54 nanoGlo assay, in single point, at 2uM, 72h; a lower Z score goes with more inhibition
Format: functional, Erythrocyte
Conditions: timepoint 72 hour

Row | Structure (SMILES) | % Inhibition [%] | Z score
1 | CN(C)c1cc(C(F)(F)F)nc(N2CCOC[C@@H]2Cc2c[nH]c3ccccc23)n1 | -4 | 0.67
2 | FC(F)(F)CCN1CCC(Nc2cccc(-c3ncon3)c2)CC1 | -1 | 0.21
3 | COc1ccc2[nH]cc(CCNC3CCN(C(=O)c4ccncc4)CC3)c2c1 | 0 | 0.02
4 | O=C(c1ccco1)N1CCC[C@H](Nc2nccc(-c3ccccn3)n2)C1 | -8 | 1.68
5 | Cn1cc(Cl)c(NC(=O)C2CC2c2ccncc2)n1 (stereo unspecified) | 6 | -1.2
6 | Cc1nn(-c2ccc(C(=O)N3C[C@H](C)OC4(CCOCC4)C3)cc2)c(C)c1Br | -3 | 0.48
7 | c1cc(CNC2CCN(CC3CC3)CC2)cc(N2CCOCC2)c1 | -6 | 0.92
8 | Cc1cc(O)c(Cl)cc1-c1cccc2c(N)ccnc12 | 82 | -14.53
9 | CCCC1CN(CC(=O)N2CCCCC2)CC1Nc1ccnc(N)n1 (stereo unspecified) | 5 | -0.9
10 | CCC[C@H]1CN(c2nc(N)c3cnn(C)c3n2)CCN1CCOC | -8 | 1.37
11 | COc1ccc(CNCc2c(-c3ccccc3)[nH]c3ccccc23)cc1 | -10 | 1.8
12 | CC1(C)C[C@H](O)c2cccc(NC(=O)c3cnc4n3CCCC4)c2O1 | 6 | -1.03
13 | CN(CCCc1ncc[nH]1)CCN1CCN(c2ccccc2)CC1 | 0 | 0.07
14 | Cn1c(NCc2ccc(N3N=C(c4ccccc4)C[C@H]3c3ccccc3)cc2)nc2ccccc21 | -11 | 1.96
15 | Cc1ccc(-c2ccc3nnc(CCC(=O)N4CCN(c5ccccc5Cl)CC4)n3n2)cc1C | 0 | 0.04
16 | O=C(NCC1CCN(c2ccncc2)CC1)[C@@H]1OCCc2ccccc21 | -2 | 0.35
17 | Cc1cc(C(F)(F)F)nc(CCNc2nccc(-c3ccncc3)n2)n1 | -2 | 0.4
18 | O=C(c1onc2c1CCCC2)N1CC[C@@H](Nc2ncnc3ccc(F)cc23)C1 | -15 | 2.76
19 | CCC[C@H]1CN(c2cc(C)nc(-c3ccccn3)n2)CCN1 | 5 | -0.72
20 | CN(c1ccccc1)c1ccc(CN2CCN([C@H]3CCNC3)CC2)cc1 | 68 | -13.59
21 | COc1ccc2c(N[C@H]3CCN(C4CCCC4)C3)ncnc2c1F | 2 | -0.45

Row | Structure (SMILES) | % Inhibition [%] | Z score
22 | C[C@@H](CN1CCCCCC1)NC1CCN(C2CCS(=O)(=O)CC2)CC1 | 0 | 0.03
23 | Nc1ccc(N2CCN(c3ncnc4[nH]ncc34)CC2)cn1 | -18 | 3.66
24 | Cc1ncn(C)c1C(=O)N1CCN(CC(=O)N2CCCC2)CC1 | -13 | 1.92
25 | Cc1ccc(OC2CN(C(=O)c3cnco3)C2)cc1 | -8 | 1.72
26 | Cc1sc2ncnc(-c3cccc(C(=O)N4CCC5CNCC54)c3)c2c1C (stereo unspecified) | 5 | -0.8
27 | CC12CC(CN1C(=O)Nc1ccc(CCn3nnc(-c4ccccc4)n3)cc1)C2 | -3 | 0.41
28 | CN(CCn1ccc2ccccc21)Cc1cnc(N2CCOCC2)s1 | -8 | 1.8
29 | CCC(=O)[C@@H]1CCCCN1C(=O)c1ccc2cc(OC)ccc2n1 | 11 | -1.96
30 | CN1CCN(c2cc(NC[C@H]3CN(C4CC4)CCO3)ncn2)CC1=O | -8 | 1.23
31 | CCn1c(NCc2ccc(OCc3cccnc3)cc2)nc2cc(F)ccc21 | -9 | 1.61
32 | Cc1nccn1-c1ccc(C(C)NC2CCN(c3ccccn3)C2)cc1 (stereo unspecified) | 2 | -0.27
33 | Cc1cncc(NC(=O)C(=O)N(c2cccc(N)c2)C2CCCC2)c1 | -16 | 2.72
34 | Cc1ncnc(NCCCN2CCN(C)CC2)c1C | -2 | 0.4
35 | COCCc1noc([C@H](C)NC(=O)c2cc(C)nc3cc(F)ccc23)n1 | -8 | 1.34
36 | Oc1ccc(-c2ncnc3ccccc23)cc1OC(F)(F)F | -1 | 0.15
37 | C[C@H](NC(=O)N1CCC(OC2CCC2)CC1)c1nnnn1C | -8 | 1.66
38 | c1nc(NCCNc2nc(C3CC3)ns2)c2ccsc2n1 | -2 | 0.37
39 | CC(C)(C)OC(=O)N1CCC(C(=O)Nc2ccccc2N2CCN(CCc3ccncc3)CC2)CC1 | 8 | -1.62
40 | Cn1cc(C(=O)Nc2cccc(CN3CCC(O)CC3)c2)c([C@H]2CCCNC2)n1 | 9 | -1.56
41 | CN1CCN(C2(CNC3CCN(C(=O)c4ccncc4)CC3)CCCCC2)CC1 | 0 | -0.01
42 | CC1(O)CCN(c2cc(N3CCN(CCc4ccccc4)CC3)ncn2)CC1 | -1 | 0.14

Row | Structure (SMILES) | % Inhibition [%] | Z score
43 | Cc1ccc(F)cc1-c1c(-c2ccccc2)ncn1C[C@H]1CC(=O)N(C2CC2)C1 | -5 | 1.02
44 | Cc1cccc(N2CCC(NC(=O)c3cc(N4CCOCC4)ccn3)CC2)n1 | -11 | 1.86
45 | CN1CCCc2cc(CNc3cnc4ccccc4n3)ccc21 | -7 | 1.56
46 | CCCCN1CCn2nc(CNC(=O)c3ccc4oc(C)cc4c3)cc2C1 | -7 | 1.15
47 | O=C(O)c1ccc(-c2c(-c3ccccc3)ncn2CCc2c[nH]c(=O)[nH]c2=O)cc1 | -6 | 1.22
48 | COc1cc(OC)c2cc(C(=O)NCCN3C(C)CCCC3C)[nH]c2c1OC (stereo unspecified) | 3 | -0.59
49 | OC1CN(C2CCC3(CCNCC3)CC2)CC1Cc1ccnc2ccccc12 (stereo unspecified) | -7 | 1.22
50 | O=C1NCCCC[C@@H]1Nc1ncnc2c1CCN(C1CCNCC1)CC2 | -5 | 0.95
51 | FC(F)(F)Oc1cccc(N2CC[C@H](NC3CCOCC3)C2)c1 | -10 | 1.76
52 | CN1CCN(CC2(C)CCN(Cc3ccc4cn[nH]c4c3)CC2)CC1 | 9 | -1.62
53 | O=C(CCc1c(-c2ccc(F)cc2)[nH]c2ccccc12)NCCNC(=O)c1ccn[nH]1 | -26 | 5.13
54 | Cc1nn(-c2nc3ccccc3s2)c(O)c1-c1cc(O)c2ccccc2n1 | -8 | 1.49
55 | CC(C)OCCO[C@H]1CCOC2(CCN(Cc3ccc4cc[nH]c4c3)CC2)C1 | 7 | -1.16
56 | O=C(Nc1cccc(-c2ccn[nH]2)c1)C1CCN(Cc2cccn2-c2ncccn2)CC1 | -5 | 0.95
57 | CCc1noc(C2CCC3(CC2)NC(C)(C)C(=O)N3CC2CCCCC2)n1 (stereo unspecified) | 4 | -0.65
58 | COc1ccc2ccccc2c1CNC[C@H]1CCN(c2ccc(F)c(F)c2)C1 | -3 | 0.68
59 | c1cc(-c2csc(CNc3ncnc4[nH]ncc34)n2)ccn1 | -7 | 1.59
60 | c1ccc(-c2nc(NCCNc3cnccn3)nc3ccccc23)cc1 | -1 | 0.1
61 | c1ncc(-c2ccnc(C3CCN(Cc4nc5c(s4)CNCC5)CC3)n2)cn1 | 6 | -0.89
62 | OC1CCCC(CNc2cc(NC3CCCOC3)ncn2)C1 (stereo unspecified) | 9 | -1.9
63 | Cc1cc(Nc2ccc(NC3CCOCC3)cc2)nc(N)n1 | -2 | 0.34

Row | Structure (SMILES) | % Inhibition [%] | Z score
64 | Cn1nccc1C1=CC2CCC(C1)N2C(=O)Nc1cnc(N2CCNCC2)nc1 (stereo unspecified) | -4 | 0.75
65 | O=C(c1ccc(-c2ncnc3ccsc23)cc1)N1CCCNCC1 | -9 | 1.48
66 | CCN=C(NCCOC)N[C@@H](C)c1ccc(F)cc1F | -6 | 1.16
67 | Cc1nc(C2CCNCC2)cc(N2CCCC[C@@H]2CCn2ccnc2C)n1 | -10 | 1.53
68 | c1cc(-c2nc([C@@H]3CCCCCN3)no2)c2cn[nH]c2c1 | -3 | 0.56
69 | Cc1noc(-c2cncnc2NCCCN2CCN(c3cc(Cl)ccc3C)CC2)n1 | 9 | -1.73
70 | COCc1nc2cc(N[C@@H](C)C(=O)N3CCN(c4ncccn4)CC3)ccc2o1 | -8 | 1.69
71 | C[C@@H](CCc1ccccc1)Nc1cc(N2CCN(C)CC2)nc(N)n1 | 13 | -2.64
72 | c1ccc(-c2nc3c(c(NCc4ccc5c(c4)OCO5)n2)CCNCC3)nc1 | 8 | -1.64
73 | COc1ccc([C@H](CC(=O)NCc2cccc3[nH]ccc23)c2cc3c(cc2O)OCO3)cc1 | -14 | 2.35
74 | Cc1ccnc(O[C@H]2CCOC3(CCN(C(=O)CN4CCCCCC4)CC3)C2)c1 | -7 | 1.24
75 | CC(C)(C)OC(=O)N1CCN(C(C)(C)C(=O)NC2CCN(C(C)(C)C)CC2)CC1 | 2 | -0.37
76 | CCN1CCC[C@@H]1CN1CCN(c2cc(C)nc(C)c2)CC1 | 2 | -0.33
77 | CCOC(=O)c1[nH]ncc1CN(CCN1CCCCC1)C[C@H]1CCCN(C2CCCC2)C1 | -4 | 0.62
78 | COC[C@@H]1CCCN1C(=O)c1cccc(-c2ccc3c(cnn3C)c2)c1 | -7 | 1.6
79 | Cc1ccn(CC(=O)N2CCCC3OC(c4ccccc4)CC32)c(=O)c1 (stereo unspecified) | -13 | 2.22
80 | CCc1nc2c(c(N3CCC(Oc4ccncc4)CC3)n1)CCNCC2 | 5 | -0.92
81 | Cc1ccc2ncccc2c1CN(C)C1CCOCC1 | -11 | 1.89
82 | O=C(c1cccc(-c2cncc(C(=O)N3CCCC3)n2)c1)N1CCCNCC1 | 7 | -0.99
83 | CC(C)c1nc(NC[C@@H](c2cccnc2)N2CCCCC2)c2cnn(C)c2n1 | 0 | -0.03
